The results in this text go back to the supplement of paper PMC9446081.

The structures appear in SMILES notation. In all, about 39,000 compounds went through this assay and about 220 (0.56%) showed activity. Some of the results follow.
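Also: static incubation at 37 °C against the wild-type strain, values averaged over two biological replicates.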

In this experiment the test system is Escherichia coli K-12 BW25113. The experiment can be described thus: relative growth (OD600 normalised to plate interquartile mean) (fraction); higher = less growth inhibition, active = 0.2 or less. To be noted: 50 µM; LB; incubation time: overnight (16-24 h).
As to `C[C@H]1CN([C@@H](C)CO)C(=O)c2c(c3ccccc3n2C)-c2ccccc2CO[C@@H]1CN(C)C(=O)Nc1ccc2c(c1)OCO2`, the relative growth was inactive: 0.981.

Take `Cc1ccc(CSc2ncc(C(F)(F)F)cc2Cl)cc1`: the relative growth was inactive: 0.932.

On to `C[C@@H]1CN([C@H](C)CO)C(=O)Cc2cc(NS(C)(=O)=O)ccc2O[C@@H]1CN(C)C(=O)Nc1ccc2c(c1)OCO2`, for which the relative growth is inactive: 0.979.

As for `CC(S)C(=O)NCC(=O)O` (stereo not drawn), the relative growth is inactive: 0.906.

For `Cc1ccc(C(=N)N)n1C`, the relative growth was inactive: 1.01.

In the case of `C[C@H](O)C#Cc1ccc2c(c1)O[C@H](CN(C)C(=O)C1CCCCC1)[C@@H](C)CN([C@H](C)CO)S2(=O)=O`, the relative growth is inactive: 0.98.

Turning to `C[C@@H]1CN([C@@H](C)CO)C(=O)c2cc(N(C)C)ccc2O[C@@H](C)CCCCO[C@@H]1CN(C)Cc1ccc(C(=O)Nc2ccccc2N)cc1`, the relative growth is inactive: 0.992.

On to `C[C@@H]1CCCCO[C@@H](CN(C)Cc2ccc(C(=O)O)cc2)[C@H](C)CN([C@H](C)CO)C(=O)c2cc(NC(=O)c3ccccc3)ccc2O1`, for which the relative growth is inactive: 0.977.

Turning to `CC[C@@H](N)c1nc(C)c(C)s1`, the relative growth was inactive: 1.02.

With `C[C@@H]1CN([C@H](C)CO)C(=O)c2cc(N(C)C)ccc2O[C@H]1CN(C)S(C)(=O)=O`, the relative growth was inactive: 0.982.

As for `Nc1ncc2[nH]cnc2n1`, the relative growth is inactive: 0.996.

Regarding `C[C@H]1CN([C@@H](C)CO)C(=O)c2cccc(NC(=O)C3CCOCC3)c2O[C@H]1CN(C)Cc1ccc(C(=O)O)cc1`, the relative growth is inactive: 0.972.

On to `C[C@H]1CN([C@@H](C)CO)C(=O)c2cc(NC(=O)Nc3ccccc3)ccc2O[C@H]1CN(C)Cc1ccc(-c2ccccc2)cc1`, for which the relative growth is inactive: 1.02.

Take `C[C@H]1CN([C@@H](C)CO)C(=O)c2cc(NC(=O)Nc3ccc(C(F)(F)F)cc3)ccc2O[C@@H]1CN(C)C(=O)Nc1ccc2c(c1)OCO2`: the relative growth is inactive: 1.01.

As for `COc1ccc(S(=O)(=O)N(C)C[C@@H]2OCCCC[C@H](C)Oc3ccc(NC(=O)Nc4cccc5ccccc45)cc3C(=O)N([C@H](C)CO)C[C@H]2C)cc1`, the relative growth was inactive: 0.966.

In the case of `C[C@H]1CN([C@@H](C)CO)C(=O)c2cc(NC(=O)NC3CCCCC3)ccc2O[C@@H]1CN(C)S(C)(=O)=O`, the relative growth was inactive: 0.956.

Take `C=CCOC(=O)N(C)C[C@@H]1OCCCC[C@H](C)Oc2ccc(NC(=O)Nc3ccccc3)cc2C(=O)N([C@@H](C)CO)C[C@H]1C`: the relative growth was inactive: 0.982.

On to `O=C(C[C@H]1C[C@H]2c3cc(NS(=O)(=O)c4ccc(F)cc4)ccc3O[C@H]2[C@@H](CO)O1)NCCN1CCCCC1`, for which the relative growth is inactive: 0.99.
